Laboratory results taken from PubChem BioAssay AID651820 (National Center for Advancing Translational Sciences (NCATS), 2012).
Several values for one entry are separate records, joined by “and”; a condition that tells them apart may be missing. Identical values can stand only once. The campaign covered roughly 340,000 compounds. About 12,000 (3.5%) were called active. The inconclusive results got no clear call from the source; some entries with a clear call stand among them for comparison. Calls come from the whole dose curve; as a rule, active = well fitted inhibition curve with a large enough effect; inconclusive = small, poorly fitted or top-dose-only effect, or another doubt; inactive = no such curve, though single readings can be large or run the other way. Where the call is inconclusive, the potency comes from a doubtful curve fit.

Test: qHTS Assay for Inhibitors of Hepatitis C Virus (HCV)
Conditions: Huh7.5.1 HCVcc-Cre (HCVcc is cell-culture hepatitis C virus) infection, luciferase reporter, 44 h; activity change, negative = inhibition: at 41.8 µM (top of the series) unless noted
Outline: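 After 44 h co-culture of compound, cells and HCVcc-Cre (~0.5 moi), substrate is added for 15 min at room temperature and luciferase measured over 15 sec. Cells were seeded at 1,000/well and pre-cultured 4 h.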
% is set by controls: 0 for no effect and ±100 for the full control effect; potency is the fitted concentration of half-maximal effect; tags give direction and shape of the fitted curve.

| Compound | Potency | activity change, negative = inhibition |
| --- | --- | --- |
| COC(=O)C1=C(C)N(Cc2ccccc2)C(=NCc2cccc(Cl)c2)N[C@H]1c1ccccc1 | inconclusive: 25.1 µM [inhibitor, single point] | – |
| Cc1cc(-c2ccccc2)n(-c2cc(N/N=C/c3ccccc3O)ncn2)n1 | inconclusive: 5.62 µM [inhibitor, full curve] | – |
| COc1cc(C=NNC(=O)c2ccccc2-n2cccc2)ccc1O | inconclusive: 15.8 µM [inhibitor, single point] | – |
| C[C@]12CC[C@H](O)CC1=CCC1C2CC[C@@]2(C)C1CC[C@@H]2NC(=O)[C@@H](N)Cc1ccccc1 (some centres not stated) | inconclusive: 14.1 µM [inhibitor, single point] | – |
| O=C(Nc1cccc(Cl)c1)N1CCN(C/C=C/c2ccccc2)CC1 | inconclusive: 12.6 µM [inhibitor, partial curve] | – |
| COc1ccc(-c2nc3c(c(SCC(=O)Nc4cccc(O)c4)n2)Cc2c(CO)cnc(C)c2O3)cc1 | inconclusive: 12.6 µM [inhibitor, partial curve, poor fit] | – |
| CC(Sc1nnc(C(F)(F)F)n1C)C(=O)Nc1ccc(S(N)(=O)=O)cc1 (configuration not stated) | – | inactive: -0.0642% |
| Cc1noc(C)c1COC(=O)c1cc(C)n(-c2ccccc2)c1C | active: 10 µM | – |
| COc1cc(OC)c(C(=O)O/N=C(\N)c2ccccc2)cc1OC | inconclusive: 10 µM [inhibitor, partial curve] | – |
| O=C(COC(=O)c1cc([N+](=O)[O-])ccc1N1CCOCC1)Nc1cccc(F)c1 | active: 12.6 µM | – |
| Clc1ccc(-c2nnc(COc3ncnc4ccccc34)o2)cc1 | – | inactive: -6.37% |
| CC(C)C(=O)N1CCN(c2ccccc2NC(=S)NC(=O)c2cccs2)CC1 | inconclusive: 22.4 µM [inhibitor, single point] | – |
| COc1ccc(OC)c(NC(=O)c2cc(S(=O)(=O)N(C)C)ccc2N2CCCC2)c1 | – | inactive: -20.2% |
| CCOc1ccc(-c2nnc(-c3cccnc3)o2)cc1OCC | inconclusive: 7.08 µM [inhibitor, partial curve, poor fit] | – |
| O=C(NC1CCSC1=O)C1CC(=O)N(c2ccc(F)cc2)C1 (configuration not stated) | – | inactive: 4.02% |
| O=C(NCc1ccc2c(c1)OCO2)c1ccc2c(c1)N(Cc1c(F)cccc1Cl)C(=O)CS2 | inconclusive: 31.6 µM [inhibitor, single point] | – |
| O=C(c1ccc2c3c(cccc13)CC2)C1CCCN(Cc2ncc[nH]2)C1 (configuration not stated) | – | inactive: -21.1% |
| COc1cc(C(=O)NCC2(N(C)C)CCCCC2)ccc1OCc1ccccc1 | inconclusive: 0.562 µM [inhibitor, full curve, poor fit] | – |
| C=C(C(=O)c1ccccc1)C(C(=C)C(=O)c1ccccc1)c1ccc(OC)cc1 | active: 3.55 µM | – |
| O=C(Nc1cccc(C(F)(F)F)c1)c1cc2c(s1)-c1ccccc1OC2 | inconclusive: 7.94 µM [inhibitor, partial curve] | – |
| CC(C)=CCOc1c2ccoc2c(OCC=C(C)C)c2oc(=O)ccc12 | inconclusive: 10 µM [inhibitor, partial curve] | – |
| CC(C)c1ccc2oc(=O)cc(CN3CCN(Cc4ccccc4)CC3)c2c1 | inconclusive: 31.6 µM [inhibitor, single point] | – |
| CS(=O)(=O)N1CCc2cc(S(=O)(=O)Nc3ccc4c(c3)OCCO4)ccc21 | inconclusive: 22.4 µM [inhibitor, single point] | – |

| Compound | Potency | activity change, negative = inhibition |
| --- | --- | --- |
| CC(CCc1ccco1)NC(=O)CSc1cc(=O)n(C)c2ccccc12 (configuration not stated) | – | inactive: -6.2% |
| Cc1nn(C)c(Cl)c1NC(=O)OCc1ccc(Cl)cc1Cl | active: 10 µM | – |
| Cc1ccc(S(=O)(=O)Oc2ccc(C3C4=C(CCCC4=O)N(CCC(=O)O)C4=C3C(=O)CCC4)cc2Cl)cc1 | – | inactive: 12.6% |
| CC(C)(C)c1nn2cnnc2n(/N=C/c2cccc3ccccc23)c1=O | – | inactive: 29.6% |
| CN(C(=O)c1ccc(NC(=O)Cc2cccc(NC(=O)C3CCCN(C(=O)C4CCCC4)C3)c2)cc1)C1CC1 (configuration not stated) | inconclusive: 12.6 µM [inhibitor, single point] | – |
| COc1cc(/C=C/c2sc3ccccc3[n+]2CCCS(=O)(=O)[O-])ccc1O | inconclusive: 4.47 µM [inhibitor, single point] | – |
| O=C(NCCOc1ccccc1)C1CCC(=O)N(C2CCCCCC2)C1 (configuration not stated) | – | inactive: -5.02% |
| CC(C)CCN1CCN(Cc2ccc(C(F)(F)F)cc2)CC1CCO (configuration not stated) | inconclusive: 31.6 µM [inhibitor, single point] | – |
| COc1ccc(NC(=O)COc2cc(C)cc(C)c2)cc1S(=O)(=O)N1CCCCC1 | active: 3.98 µM | – |
| CCN(CCNC(=O)C1CCN(Cc2nc(-c3ccc(Cl)cc3)oc2C)CC1)c1ccccc1 | – | inactive: -42.9% |
| Cc1ccc2[nH]c3c(c2c1)CCCC3NC(=O)CCl (configuration not stated) | inconclusive: 12.6 µM [inhibitor, single point] | – |
| CC(=O)c1ccc(N2CCN(C(=O)c3ccc(Cl)c(S(=O)(=O)NC4CC4)c3)CC2)c(F)c1 | inconclusive: 22.4 µM [inhibitor, single point] | – |
| CN(C)C=NC(=O)c1cc(C(=O)c2ccc(C(C)(C)C)cc2)c[nH]1 | – | inactive: -5.31% |
| CC(SCc1ccccc1)C(=O)NC1CCCC1 (configuration not stated) | inconclusive: 5.62 µM [inhibitor, single point] | – |
| Cc1ccc(O)c(CNc2nc3ccccc3[nH]2)c1 | inconclusive: 31.6 µM [inhibitor, single point] | – |
| COc1cccc(NC(=O)CC2C(=O)NC3CCCCC3N2C(=O)c2ccccc2)c1 (configuration not stated) | – | inactive: 14.5% |
| COc1ccc(/C=N/NC(=O)c2cccc([N+](=O)[O-])c2)cc1OC(=O)c1ccccc1 | active: 11.2 µM | – |
| O=C(NCCc1c[nH]c2ccccc12)c1ccc(S(=O)(=O)NCc2ccco2)cc1 | inconclusive: 31.6 µM [inhibitor, single point] and inconclusive: 11.2 µM [inhibitor, single point] | – |
| CCOC(=O)c1c(NC(=O)CSc2nnc3c(n2)[nH]c2ccc(F)cc23)sc(C(C)=O)c1C | inconclusive: 2.82 µM [inhibitor, partial curve] | – |
| COc1cccc(NC(=O)COc2coc(CN3CCN(c4ccccc4)CC3)cc2=O)c1 | inconclusive: 4.47 µM [inhibitor, full curve, poor fit] | – |
| Fc1ccc(Br)cc1C1C=C(c2ccc(Br)s2)Nc2ncnn21 (configuration not stated) | inconclusive: 35.5 µM [inhibitor, partial curve, poor fit] | – |
| Cc1ccccc1Nc1ncnc2c1cnn2Cc1ccccc1 | inconclusive: 11.2 µM [inhibitor, single point] | – |
| c1ccc(-c2nc[nH]c2-c2ccccc2)cc1 | inconclusive: 31.6 µM [inhibitor, single point] and inconclusive: 3.98 µM [inhibitor, full curve, poor fit] | – |

| Compound | Potency | activity change, negative = inhibition |
| --- | --- | --- |
| Cc1ccc(C(=O)c2ccc(O)cc2)cc1C | – | inactive: -9.26% |
| O=C(C[C@H]1C/C=C/CC[C@H](Cc2ccc(F)cc2)C(=O)O[C@H](c2ccccc2)CNC1=O)NCCO | inconclusive: 3.16 µM [inhibitor, partial curve] | – |
| N#Cc1nc(COc2ccc(Cl)cc2Cl)oc1N1CCN(c2ccccc2)CC1 | inconclusive: 31.6 µM [inhibitor, single point] | – |
| COc1ccc([N+](=O)[O-])cc1NC(=O)Cc1ccccc1Cl | inconclusive: 10 µM [inhibitor, partial curve] | – |
| O=C(COC(=O)c1c(Cl)ccc(Cl)c1Cl)NC(=O)NCc1ccccc1 | inconclusive: 10 µM [inhibitor, partial curve] | – |
| N#Cc1ccc(S(=O)(=O)N2CCN(c3ncccn3)CC2)cc1 | – | inactive: 15% |
| O=C(Nc1ccc2nc(-c3cccs3)c(-c3cccs3)nc2c1)N1CCOCC1 | inconclusive: 7.94 µM [inhibitor, partial curve] | – |
| CC[C@H]1CC2CN3CCc4c([nH]c5cc(OC)ccc45)[C@](C(=O)OC)(C2)[C@H]13 | active: 35.5 µM | – |
| Cn1cc(CN2CCCCC2CO)c(-c2ccc(Oc3ccccc3)cc2)n1 (configuration not stated) | – | inactive: -26% |
| CN1c2ccc([N+](=O)[O-])cc2CC2(C(=O)NC(=O)N(c3ccc(Br)cc3)C2=O)C1c1ccccc1 (configuration not stated) | inconclusive: 15.8 µM [inhibitor, single point] | – |
| N#CC1=C(N)OC2=C(CCc3ccccc32)C1c1ccccc1 (configuration not stated) | inconclusive: 0.501 µM [inhibitor, full curve, poor fit] | – |
| c1ccc(-c2cc3c(N4CCOCC4)ncnc3s2)cc1 | active: 10 µM | – |
| Cc1ccc(C(CCN(Cc2ccccc2)C(=O)c2ccco2)c2ccco2)cc1 (configuration not stated) | – | inconclusive: -36.3% [inhibitor] |
| CCCC(=O)N(C1CC(C)C(C#N)(C#N)C1(C#N)C#N)N(C)C (configuration not stated) | inconclusive: 31.6 µM [inhibitor, single point] | – |
| COc1ccc(S(=O)(=O)N2CCC(NC(=O)C3CCCCC3)CC2)cc1 | inconclusive: 12.6 µM [inhibitor, partial curve] | – |
| Cc1cc(C(=O)CS(=O)(=O)c2ccc(F)cc2)cc(C)c1OC(=O)N(C)C | inconclusive: 22.4 µM [inhibitor, single point] | – |
| O=C(Nc1cccc(O)c1)c1ccc(NC(=O)C2CCCO2)cc1 (configuration not stated) | – | inactive: 15.6% |
| CC(=O)c1ccc(NC(=O)c2ccc(S(=O)(=O)N3CCCC3)cc2)cc1 | – | inactive: -7.38% |
| COc1ccccc1CNC(=O)CCNS(=O)(=O)c1ccc2[nH]c(=O)oc2c1 | inconclusive: 25.1 µM [inhibitor, single point] | – |
| COc1cc(OC)c(NC(=O)c2ccoc2C)cc1Cl | inconclusive: 11.2 µM [inhibitor, partial curve] | – |
| Fc1ccc(-c2nnc(CN3CCN(c4ncc(C(F)(F)F)cc4Cl)CC3)o2)cc1 | inconclusive: 10 µM [inhibitor, single point] | – |
